In PubChem BioAssay AID1346428 (National Center for Advancing Translational Sciences (NCATS), 2018):
About 1,200 (2.5%) of roughly 48,000 compounds were called active. Another 2% or so got no clear call; they are omitted.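 The calls were made as follows: active = activation of at least 60% and not above a set upper limit (about 1 call in 100 departs from these limits); inconclusive = activation of 40% to 60%, or above that upper limit; inactive = activation under 40%.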 This is one part of the list.

Each compound was assayed against Probable G-protein coupled receptor 32 (Homo sapiens) (UniProt O75388) (assay: qHTS for Agonists of Human Resolvin D1 Receptor DRV1). Conditions: CHO-K1 GPR32 beta-arrestin PathHunter luminescence, 90 min; at 76.9 µM; hits give high values; zero percent set by DMSO-only wells.
Procedure, shortened: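 Engineered CHO-K1 line co-expressing GPR32-ProLink and EA-beta-arrestin. Compound treatment lasted 90 min at 37 °C. Luminescence was recorded after 1 h with substrate at ambient temperature, relative to DMSO basal wells.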
Also: 0% is about no effect.

Chain of UniProt O75388 (O75388 whole entry, looked up): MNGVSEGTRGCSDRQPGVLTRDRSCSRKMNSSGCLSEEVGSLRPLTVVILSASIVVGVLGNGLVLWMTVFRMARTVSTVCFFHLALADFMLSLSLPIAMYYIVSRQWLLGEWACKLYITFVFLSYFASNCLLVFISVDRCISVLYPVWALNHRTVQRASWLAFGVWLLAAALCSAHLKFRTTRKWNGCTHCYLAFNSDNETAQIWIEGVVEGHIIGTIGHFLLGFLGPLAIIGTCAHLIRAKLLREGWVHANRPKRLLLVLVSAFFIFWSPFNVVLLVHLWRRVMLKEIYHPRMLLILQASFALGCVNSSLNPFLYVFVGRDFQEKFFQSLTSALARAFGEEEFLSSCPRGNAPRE

| Compound | activation |
| --- | --- |
| CC(NCc1ccc2c(c1)n(C)c(=O)n2C)c1ccccc1 (centres undefined) | inactive: -3.85% |
| COc1cccc(-c2cc(C(=O)NCc3ccccc3)no2)c1 | inactive: 34.2% |
| Cc1c(C(=O)N(C)Cc2ccccc2)sc2nc(-c3ccc(F)cc3)cn12 | inactive: 18.4% |
| Cc1cc(C)n2nc(CNC(=O)c3cccc(N(C)C)c3)nc2n1 | inactive: 12.4% |
| COCCCNC(=O)C1CCN(Cc2cc3ccccc3n2Cc2cccc(Cl)c2)CC1 | inactive: 4.37% |
| Cc1ccc(-c2cn3c(n2)sc2cc(C(=O)NC4CCCCCC4)ccc23)cc1 | inactive: -12.1% |
| CCC12CN3CC(CC)(CN(C1)C3c1c[nH]c3ccccc13)C2=O (centres undefined) | inactive: -16.4% |
| COc1ccc(NS(=O)(=O)c2ccc3c(c2)CC(C)N3C(=O)C2CCC2)cc1OC (centres undefined) | inactive: 5.76% |
| O=S(=O)(Nc1nc2n(n1)C(c1ccc(F)cc1)C=C(c1ccc(Cl)cc1)N2)c1ccccc1 (centres undefined) | active: 94.8% |
| CCn1cc(C(=O)N(C)c2cc(C)ccc2C)c2cc(OC)c(OC)cc2c1=O | inactive: 4.44% |
| CSc1nn(CC(=O)Nc2ccc(C)cc2C)c(N)c1S(=O)(=O)c1ccc(Cl)cc1 | inactive: 37.7% |
| COc1ccc(Br)cc1CNC(=O)C1CCN(c2nnc(-n3cccc3CNc3ccc(C)cc3)s2)CC1 | inactive: -27.4% |
| O=C(O)c1cc2cc(Cc3cccnc3)ccc2o1 | inactive: 10% |
| COc1cc2c(C(=O)N3CCN(c4ccc(F)cc4)CC3)cn(CC(C)C)c(=O)c2cc1OC | inactive: 0.897% |
| CCOc1ccccc1NC(=O)C1CCCN(S(=O)(=O)c2cccs2)C1 (centres undefined) | inactive: 3.38% |
| CCCN(Cc1cccs1)C(=O)Nc1cc(C)cc(C)c1 | inactive: -13.4% |
| CCN(CC)C(=O)Cn1c(=O)n(-c2ccc(Cl)cc2)c(=O)c2c3c(sc21)CCCCC3 | inactive: -36.1% |
| Cc1nn(C)c2c1c(-c1ccccc1)cc(=O)n2Cc1ccc(F)cc1Cl | inactive: -3.44% |
| CCOc1ccc(N2CC(NC(=O)Cc3cccs3)CC2=O)cc1 (centres undefined) | inactive: 0.493% |
| COc1ccc(NC(=O)CC2C(=O)N(c3ccc(OC)cc3)C(=O)N2Cc2ccc(OC)c(OC)c2)cc1 (centres undefined) | inactive: 6.59% |
| COc1ccc(-c2nc3ccccc3o2)cc1NC(=O)c1cccc2c(Cl)cccc12 | inactive: 0.43% |

| Compound | activation |
| --- | --- |
| CCOc1ccc(CCNC(=O)CCn2c(=O)c3cccn3c3ccc(F)cc32)cc1OCC | inactive: -16.6% |
| CCOc1ccc(NC(=O)CCc2c(C)nc3c4c(C)cc(C)nc4nn3c2C)cc1 | inactive: 1.7% |
| COc1ccc2cc(-c3nc(-c4ccc(N(C)C)cc4)no3)c(=O)oc2c1 | inactive: -5.21% |
| Cc1ccc(C)c(CSc2cn(CC(=O)N3CCCC3)c3ccccc23)c1 | inactive: -0.477% |
| CN(Cc1ccccc1)c1ccc2cc(S(=O)(=O)N3CCCCC3)ccc2n1 | inactive: -0.66% |
| O=C(CCS(=O)(=O)c1cc(Br)cc2c1N(C(=O)C1CC1)CC2)N1CCN(c2ccccc2)CC1 | inactive: 2.3% |
| COc1ccc(OC)c(CCNC(=O)c2cnn(-c3ccccc3)c2-n2cccc2)c1 | inactive: 0% |
| CNC(=O)C1CCN(C(=O)N2CC(C)Oc3ccc(Cl)cc32)CC1 (centres undefined) | inactive: -0.104% |
| Cc1nnc2c3ccccc3nc(N3CCN(c4ccccc4)CC3)n12 | inactive: -11.9% |
| CCOc1ccc(C2CC(=O)c3c([nH]c(C(=O)OCCOc4ccccc4)c3C)C2)cc1 (centres undefined) | inactive: 38.1% |
| CCOC(=O)C1CCCN(C(=O)c2ccccc2NC(=O)c2nsc3ccccc23)C1 (centres undefined) | inactive: -21.7% |
| O=C(c1ccc2c(c1)N(Cc1cccc(Cl)c1)C(=O)c1ccccc1S2(=O)=O)N1CCCC1 | inactive: -33.8% |
| Cc1ccccc1Cn1nnc2c(=O)[nH]c(C3CCCN(C(=O)c4ccc(C(C)(C)C)cc4)C3)nc21 (centres undefined) | inactive: -18.1% |
| O=C(Cn1cc(SCc2ccc(F)cc2)c2ccccc21)N1CCCCCC1 | inactive: -30.8% |
| N#Cc1c(-c2ccccc2)cc(-c2ccccc2)nc1SCC(O)CS(=O)(=O)Cc1ccccc1 (centres undefined) | inactive: -22.4% |
| CCOCCCNC(=O)C1CCCN(c2ncnc3onc(C)c23)C1 (centres undefined) | inactive: 13.3% |
| O=C(CCc1ccccc1)N(Cc1cccnc1)c1nc2ccc(F)cc2s1 | inactive: -19.7% |
| CCN(CC)C(=O)CSc1nc2c(c(=O)n(C)c(=O)n2C)n1Cc1ccccc1 | inactive: -11.5% |
| CCOc1ccc(NC(=O)c2cnn(-c3ccccc3)c2-n2cccc2)cc1 | inactive: -6.74% |
| COc1ccccc1Cc1nc2ccccc2nc1SCC(=O)N1CCCCC1 | inactive: -29.4% |
| C=C1c2cccc(O)c2C(O)=C2C(=O)[C@]3(O)C(O)=C(C(N)=O)C(=O)[C@@H](N(C)C)[C@@H]3[C@@H](O)[C@H]12 | inactive: -0.884% |

| Compound | activation |
| --- | --- |
| CCCCOc1ccccc1NC(=O)CC1Sc2ccccc2NC1=O (centres undefined) | inactive: -8.46% |
| COc1ccc(NC(=O)c2sc3nc4n(c(=O)c3c2C)CCC4)c(OC)c1 | inactive: -2.34% |
| CCOC(=O)N1CCN(c2ncc3c(n2)CC(c2ccc(OC)c(OC)c2)CC3=O)CC1 (centres undefined) | inactive: 48.3% |
| COc1ccc(CCNC(=O)CCc2c(C)nc3cc(-c4ccc(Cl)cc4)nn3c2C)c(OC)c1 | inactive: 0.99% |
| Cc1noc(/C=C/c2ccccc2F)c1S(=O)(=O)N1CCC(C(=O)NCc2ccco2)CC1 | inactive: -22.3% |
| CCOC(=O)c1ccccc1NC(=O)N1CCCn2nc(C)cc21 | inactive: -20% |
| COc1ccc(C(=O)Nc2cccc(OCc3cc(=O)n4c5c(sc4n3)CCCC5)c2)cc1OC | active: 63.4% |
| Cc1cc(C)cc(N2C(=O)CSC23C(=O)N(CC(=O)NC2CCCCC2)c2ccccc23)c1 (centres undefined) | inactive: -8.6% |
| CCc1ccc(NC(=O)Cn2c(=O)n(Cc3ccc(C)cc3)c(=O)c3cccnc32)cc1 | inactive: -5.52% |
| CC(=O)N1CCCc2cc(S(=O)(=O)N3CCC(C(=O)N(C)C4CCCCC4)CC3)ccc21 | inactive: 6.57% |
| Cc1ccccc1C(=O)Nc1nnc(S(=O)(=O)N2CCc3ccccc32)s1 | inactive: 1.11% |
| CCOc1ccc2nc(N3CCC(C(=O)Nc4cc(C)ccc4C)CC3)sc2c1 | inactive: -0.711% |
| Cc1ccc(Cl)cc1NC(=O)CCn1c(=O)c2cccn2c2cccnc21 | inactive: -7.52% |
| COc1ccc(NC(=O)CSc2nc(-c3cccs3)cc(C(F)(F)F)n2)c(OC)c1 | inactive: 45.6% |
| O=C(NC1CCCCC1)c1ccc(CSc2nc3ccncc3n2Cc2ccccc2F)cc1 | inactive: -7.63% |
| Cc1ccc(NC(=O)Cn2cc3c(n2)CCCC3)c(C)c1 | inactive: -0.721% |
| CCc1ccc(NC(=O)CSc2ccc(-c3cccs3)nn2)cc1 | inactive: 19.4% |
| Oc1c(C(c2ccccc2Cl)N2CCN(Cc3ccccc3)CC2)sc2nc(-c3ccco3)nn12 (centres undefined) | active: 94.3% |
| CCN(CC)CCCNC(=O)CSc1nc(-c2ccc(OC)cc2)cc(C(F)(F)F)n1 | inactive: -10.1% |
| O=C(CSCc1cnn(-c2ccccc2)c1-n1cccc1)NCc1ccc(F)cc1 | inactive: -13.5% |
| Cc1noc(Cn2c(=O)c3cc4c(cc3n(CC(=O)Nc3ccccc3F)c2=O)OCO4)n1 | inactive: -9.36% |

| Compound | activation |
| --- | --- |
| CCOC(=O)C1CCC(CN(Cc2ccc(OC)cc2)S(=O)(=O)c2ccc(F)c(C(=O)Nc3cc(C)ccc3C)c2)CC1 (centres undefined) | inactive: -9.36% |
| CCOC(=O)c1cnc2ccc(OCC)cc2c1N1CCN(c2ccccc2F)CC1 | inactive: -2.98% |
| CCOc1ccc(NC(=O)c2ccc3snnc3c2)cc1 | inactive: 0.468% |
| Cc1nc(N2CCCC2)c2c(C(=O)Nc3ccc(Br)cc3F)c(C)oc2n1 | inactive: -36% |
| COc1ccc(-c2csc3nc(-c4ccccc4)oc(=O)c23)cc1OC | inactive: -3.99% |
| Cc1ccccc1C(=O)Nc1nc(-c2ccc(Br)cc2)ns1 | inactive: 24.2% |
| CCOC(=O)c1c(C)n(-c2ccccc2)c2ccc(OC(=O)c3cccc(Cl)c3)cc12 | inactive: -11.5% |
| CC(C)NC(=O)C1CCC(Cn2c(=O)c3sccc3n(CC(=O)Nc3ccccc3)c2=O)CC1 (centres undefined) | inactive: -14.4% |
| FC(F)(F)c1cc(-c2cccc(Br)c2)nc2ncnn12 | inactive: -2.62% |
| CC(=O)c1cc(-c2ccccc2)n(CC(=O)NCCc2ccc(C)cc2)c1C | inactive: -13.4% |
| CC(C)Oc1ccc(CNC(=O)C2CCN(C(=O)N3CC(C)Oc4ccccc43)CC2)cc1 (centres undefined) | inactive: 5.11% |
| Cc1cccc(-c2nc(CSc3nncn4c3cc3sccc34)c(C)o2)c1 | inactive: 3.77% |
| CCOC(=O)c1ccc(CN(Cc2ccccc2)S(=O)(=O)c2ccc(Cl)cc2)cc1 | inactive: -16.7% |
| CN(C(=O)CSc1nc2ccccc2n1CC(=O)N(C)C1CCCCC1)c1ccccc1 | inactive: -5.61% |
| Cc1ccc2c(CNC3CCCC3)c(C(=O)O)n(Cc3ccc(F)cc3)c2c1 | inactive: -1.15% |
| Cc1ccc(C)c(NC(=O)c2cc(S(=O)(=O)NCCc3ccccc3)ccc2F)c1 | inactive: -15% |
| COc1ccc(NC(=O)C2CCN(S(=O)(=O)c3cc(-c4noc(C)n4)ccc3C)CC2)cc1 | inactive: 9.01% |
| Cc1cccc(NC(=O)CN2C(=O)CCn3nc(-c4cccn4C)cc32)c1C | inactive: -16.4% |
| Cc1noc(/C=C/c2ccccc2F)c1S(=O)(=O)N1CCC(C(=O)Nc2ccc(C#N)cc2)CC1 | inactive: -22.3% |
| CCCCNC(=O)CCn1c(=O)c2ccccc2n(Cc2cccc(Cl)c2)c1=O | inactive: -26.8% |
| CCOC(=O)C1CCCN(C(=O)c2ccc3c(c2)N(Cc2ccc(Cl)cc2)C(=O)c2ccccc2S3=O)C1 (centres undefined) | inactive: -1.68% |
